Laboratory results as given in the RNAGym collection of RNA variant scans (doi:10.1073/pnas.2313332121).
This sample is rich in variants without activity.

B1: TPR 5TU (parent)
chain: GGAUCUUCUCGAUCUAACAAAAAAGACAAAUCUGCCACAAAGCUUGAGAGCAUCUUCGGAUGCAGAGGCGGCAGCCUUCGGUGGCGCGAUAGCGCCAACGUUCUCAACUAUGACACGCAAAACGCGUGCUCCGUUGAAUGGAGUUUAUCAUG

Variants of: B1
Assay: polymerase ribozyme fitness, log enrichment relative to wild type (log ratio); higher = more active; in vitro selection for triplet polymerase activity
Procedure, shortened: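 Both subunits of a heterodimeric triplet polymerase ribozyme were given their own mutant library, built by PCR and transcribed. Each library was annealed with a biotinylated primer, the partner subunit and triplets, incubated frozen at −7 °C, and its extended constructs gel-excised, captured on streptavidin beads and amplified by RT-PCR, all in one round done in triplicate. Fitness is the logarithm of genotype enrichment relative to wild-type enrichment, with replicates averaged by inverse-variance weighting. That logarithm is base 2, and Illumina-sequenced genotypes needed ≥10 input reads and ≥1 read per output.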

Polymerase ribozyme fitness (log ratio), -1.2:
G11A U55A A73G

Polymerase ribozyme fitness (log ratio), -4.11:
A12G A91U C105G A106U

Polymerase ribozyme fitness (log ratio), -1.11:
G11A U55A

Polymerase ribozyme fitness (log ratio), -3.2:
G11U C18U G84U

Polymerase ribozyme fitness (log ratio), -2.9:
A12G A17U A49G A60G A91G

Polymerase ribozyme fitness (log ratio), ≤ -4.2:
A12C C51U A66C G81C C103A C108U
A12C C14A A30U A39C G58C G83C G124U
G11U U15A G59C C93G G112C G141C
G11C A22U A29G A39G A47C C76U U78A C103G C125G G140A U144C
A12C G46A C51U A64G C79G C93A A113C G124U
A12C G25U C51G C72G C118G
A12C G46C U55A A66G A73U C87A A98C C118U G143C
G11C A16G A21U A30C G34U U53G C79G A142U
A12C A17G G48C G80C G84A G141A A142C
A12G A47G C76G C85G A120U G143A A150C
A12G C32G U53A C87A A91C
G11C G67C C93G C118U
A12C A23G G50U G83A
G11C C14A A16G C87U
G11C A40C C51G A52C C93U C103G
G11C C35A A60C G81U C87G
A12G A16U C54U A73G G83U G84C C95G G140C
G11C G34C G65U
A12G A52U U104G C125U
A12G C14G A17G G83U C95A C99A A120G U127G C149U
G11C U15G G59A G84U C105U U109G
A12C A30G C63U U145G
G11C U55A C76G G140U
G11U C54A C93G C99G G141U
A12C U44G A64G C85U
G11C A40U C51U C85G A106G
G11C A28G U31A C76G C85U
A12C A23G C38U C75G G81A G133U
A12G A16U G50A G83C C85A U90C
A12G C14A C38U C43A U56A C85U C103G
G11C A66C G86U C93U C108U G128U
A12C U90G
G11C C35G A52U C63A G94A C131U
G11C A20U G83U A91G G143A A147C
A12G C14U A30U
G11U U15G A24G U56G C93U
A12C G58A G88C C118G G136U
G11U A12G A30C C35A G80U C93A
G11U A22C C35U U53G C69A C93A C103U
A12C A60C U61A G83A A91U G117A G141U U146A
G11U C85U G112C U145A
A12C G83C G88C C149G
A12G A24U U55C C63A A91U G128C
A12C G59C C87A
G11C A20C A29C G46A C116A U145C
A12G A49C G50A C69G
G11U A66U G88U A107U U135C
G11U U61A C75A G94A G143A
G11C A24C C51G C87G A98G C99G A138U
G11C U90G C132G A138C G141U
A12G A26U U31G A91G G133U
G11C C14G A21U U55A G68C U127G G133U A137C
G11C A47G U53G C93G U111C A137C U146G
A12C G88U A91U C93G C103A A120U G143U
G11U A12G A49C G50A C93A G124A
G11U U15G A40C G71U C93U G124A A138G U145A C149A
A12C U15C U44A G50C G70C U77A
G11C G34C A52C C95U U144A
G11C A24G U45A G80C G86U A89C C99U U101G
A12C C36G U45A G84A
G11C A16U C32G C36U G65U G71C G86U U90A C125A G143U
G11U G42A A73G G92A
G11C A19U C27U U61A C93G A97U U101G U151G
A12C A21U A52C C54G C57A A73U G88C C99U G124A
A12G A28U U109G A137C U139G U148G
G11U G50U G68A G84U C114U A115U G136A
A12C C87A C131A C149A
A12G A19U C75U A89U C93A U102A
G11C C27U U61A C72G U77G C85U A120U U148A
G11U A29C C54G U61A C95U
G11C A138C
A12G A28C G71A G94U C95A A110C G124U C132G
G11U A26G A52G G81A G84A U135G G141A
A12G C14U A60C U77C G83C G94U C108G C118U
A12C G71C C93U A113G
A12C G58C G94C U151G
G11U G42U G68A G86U C95G A137C
A12G C14U A17G A47C C87G C93G G143U
G11C A26U U146C
A12G C18U A22G G67U G86C C105G A115G
A12G A30G C32U C85A A142U
G11C A26U A40G A49G
G11U A39G A47G G83A A142G
G11C C35G U45G G80U C85U A97U A107G
G11U A23U A37C A64C C76A C132U
A12G A16G A39U A47G C75A A89U G133C
G11U C14G A20G C27G A52U G80A A120U G141U U144G
A12C U56A G83C C99G G100C U146G
G11C U33A U44A G62A A91G G124U
A12C G58C A64U A97G A106C
A12C A40C U55A A107G A142G
G11U A16U A22U A29U G58A G92C C118U A119U U145A
G11U A26C G48A A60C G80A C85G A120C G143C
A12G C14U A26G G46A U82C
G11U A21C A29G C32A C87A C103G C118U U134G U146G
G11U G50C U53G U56A G59C C95U
G11U A21U G74C G92U
G11U C18G C54A G88A C118A
A12C A40G C87U U101G
G11C U15C A19C C35G G86U G126A G152A
A12C C87A U130C
A12C U31A A47G C79A
G11C C72U U90C C93A U104A U127A
G11U A16U A52C G58C G65A C79A G83U C93U C118A
A12C C43U A52C G84U C93G C132G
A12C A39U G88C A115C G126A
G11C G42U G48A U102C A110C
A12G C27A A47C G81A C103U A122G
A12C A24G A52C A60C
A12C G58U A106C C131G G143U
G11C A26U C57G C69G
G11C A41U C75A C93U
A12C A30U A41C A47C U55C C93U C96U
G11A G70C A107U
A12G A52G U56A A64U G84C U111A A115G
A12G C14U C38U G42C A73U A91U A119C U134A U135C A137U
A12C C38U G50C U53A U55G G71U G92U U148C
G11U A21U A24C C93U C105U
A12G A24U C69A G81U G83A U109C
G11C G25U A52C C54U C95U A107G U144A
A12C G48C G80C A89G C95A
A12C C99U C105G
A12C G25U U55A U56C G83C
G11C G34A C76U G86A G92C G128U G140U
A12G A26U C32G U82G G84A A91C G152U
G11U A12U A16C U55A C99A
A12G A40U G50U C72U U102G C116U
A12C G50U C57A C87G G128A
A12C C57U A66G C96G
G11C A17C C18A A21U U53A G65C C76G A98U C132U A142U
A12G C18U G84A U102C C105A A107G
A12C G62A C76G G100A U139G
A12G A28C C79U C85U U102G A106C
G11C C38U C76U U78G A97G G124U
A12G C18U G50C G74U U90G A122G G136C
G11C U77A
A12C U77C C85A C108A U111C A113U
A12C U13A G42C C72A C85U G140A
G11C A24C A39G G71C C95G C99U G112A G133U U135G A137C
G11U G92A C95A
A12G A28C A41C A91U C96U C99A C108A A138G
A12C A22C A97G C99A A138C
A12C A47G C87A G94U U144G U151A
A12G C18G U56A U90A U101G C108G A119U U135C G136A
G11C A16U A19U C79G C95G C96U A120U
A12C C93A A110G U146G
A12G A29C C75G A122U A150C
A12C A19U G50U G62A G86A A107U
G11A U15G U33C G34A G70C U82A C103G C108U C132U
G11U C75U C79G C87U
A12G A28U C93U G136A G141C
G11A G68A
G11U C36G C95A
A12C G46C C93U G140U

Polymerase ribozyme fitness (log ratio), -3.25:
A12C A113G A119U U145A

Polymerase ribozyme fitness (log ratio), -3.7:
G11A U56A C99U G143C

Polymerase ribozyme fitness (log ratio), -3.76:
G11U C38A A40C U53A G58A

Polymerase ribozyme fitness (log ratio), -2.68:
A12C C93A

Polymerase ribozyme fitness (log ratio), -3.43:
A12C A52C C87U A89C

Polymerase ribozyme fitness (log ratio), -4.17:
G11C U33G C38U A47C A49C G92A A97G U111G C118U G133U

Polymerase ribozyme fitness (log ratio), -0.735:
G11A G94U A150U

Polymerase ribozyme fitness (log ratio), -0.359:
A12G A37C C87U G92A A119U G136A
